# Results taken from PubChem BioAssay AID1460 (National Center for Advancing Translational Sciences (NCATS), 2008).
# Values joined by “and” are separate entries in the source; they are usually repeats but may differ in a detail not shown here. Equal values may be shown once. Among all 270,000 compounds or so, about 5,800 (2.1%) were called active. The shares of active, inactive and inconclusive entries below differ from those in the screen. Calls come from the whole dose curve; as a rule, active = well fitted inhibition curve with a large enough effect; inconclusive = small, poorly fitted or top-dose-only effect; inactive = flat fitted curve, though single readings scatter. Where the call is inconclusive, the potency comes from a doubtful curve fit.
# Target: Microtubule-associated protein tau (Homo sapiens) (UniProt P10636)
# UniProt P10636, sequence (P10636 whole entry, looked up): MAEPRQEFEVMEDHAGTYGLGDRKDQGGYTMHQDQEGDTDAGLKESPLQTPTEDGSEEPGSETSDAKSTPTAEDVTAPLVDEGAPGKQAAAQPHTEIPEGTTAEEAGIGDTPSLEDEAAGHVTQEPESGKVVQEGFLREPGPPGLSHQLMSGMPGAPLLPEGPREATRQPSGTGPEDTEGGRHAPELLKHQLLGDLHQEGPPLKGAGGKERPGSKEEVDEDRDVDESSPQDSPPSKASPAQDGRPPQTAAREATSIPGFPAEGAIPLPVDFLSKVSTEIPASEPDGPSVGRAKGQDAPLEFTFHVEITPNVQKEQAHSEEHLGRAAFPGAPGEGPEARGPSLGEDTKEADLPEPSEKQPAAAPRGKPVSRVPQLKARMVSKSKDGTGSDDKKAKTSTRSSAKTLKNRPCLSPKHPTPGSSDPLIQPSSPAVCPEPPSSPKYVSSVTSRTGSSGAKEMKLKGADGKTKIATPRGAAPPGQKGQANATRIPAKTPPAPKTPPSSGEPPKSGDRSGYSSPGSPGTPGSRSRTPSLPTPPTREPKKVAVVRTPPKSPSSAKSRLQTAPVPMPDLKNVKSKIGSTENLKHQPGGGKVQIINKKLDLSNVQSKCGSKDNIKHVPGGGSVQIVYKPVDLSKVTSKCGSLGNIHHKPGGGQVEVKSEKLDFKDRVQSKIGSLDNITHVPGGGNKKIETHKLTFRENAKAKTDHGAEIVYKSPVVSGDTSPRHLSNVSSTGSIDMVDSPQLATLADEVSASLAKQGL
# Test: qHTS for Inhibitors of Tau Fibril Formation, Thioflavin T Binding; note: nearly all actives have a fitted effect of over 55% in size
# Details: recombinant tau K18 P301L (four-repeat tau fragment), heparin-induced fibrillization, ThT fluorescence; series mostly up to 57.4 µM
# Procedure, shortened: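 Tau K18 P301L fragment (15 uM unlabeled plus 0.24 uM Alexa 594-labeled) in 100 mM sodium acetate pH 7 with compound, fibrillization induced by 20 uM heparin for 6 hr at 37 C. Thioflavin T (30 uM) added, fluorescence read after 1 hr (ex 450, em 510 nm).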
# Potency is the fitted concentration of half-maximal effect; tags give direction and shape of the fitted curve.
row,SMILES,Potency
1,N#CC1=C(N)NC(SCC(=O)O)=C(C#N)C12CCCC2,"inconclusive: 28.2 µM [inhibitor, single point]"
2,O=S(=O)([N-]c1nc2ccccc2nc1-[n+]1ccc(-c2ccncc2)cc1)c1ccccc1,"inconclusive: 28.2 µM [inhibitor, partial curve]"
3,CCOC(=O)NC(Nc1sc2c(c1C(=O)OC)CCN(C)C2)(C(F)(F)F)C(F)(F)F,inactive
4,CCC1=C2CC[C@H]3C(=O)N(CC(=O)OC)C(=O)[C@H]3[C@H]2[C@@]2(C)C(=NCCc3c[nH]c4ccccc34)OC(=O)N2C1=O,inactive
5,CCNC(=S)/N=C(\N)Nc1nc(C)c2cc(C)ccc2n1,"inconclusive: 2.24 µM [inhibitor, partial curve, poor fit]"
6,O=[N+]([O-])c1cccc2c(Br)[nH]nc12,"inconclusive: 39.8 µM [inhibitor, single point] and inconclusive: 20 µM [inhibitor, single point]"
7,CN(C)S(=O)(=O)c1ccc(C(=O)NCCSc2c(-c3ccccc3)[nH]c3ccccc23)cc1,inactive
8,CCOC(=O)/C(C#N)=c1/s/c(=C2\C=Cc3ccccc3N2CC)c(=O)n1CC,"inconclusive: 1.26 µM [inhibitor, full curve]"
9,O=C(NCCO)c1cc2cc(Cl)cc(Cl)c2oc1=O,"inconclusive: 22.4 µM [inhibitor, partial curve, poor fit]"
10,Nc1[nH]nc2c1NN(c1ccc(Cl)cc1Cl)N2,active: 3.55 µM
11,On1c2c(c3c4nonc4ccc31)CCCC2,active: 7.94 µM
12,CCN(CC)c1ccc(NC(=O)c2ccc(NC(=O)C3CCCO3)cc2)c(C)c1 (configuration not stated),"inconclusive: 15.8 µM [inhibitor, partial curve]"
13,COc1ccc(N(Cc2cc3cccc(C)c3[nH]c2=O)C(=O)c2cccc(Cl)c2)cc1,"inconclusive: 20 µM [inhibitor, partial curve, poor fit]"
14,COc1ccc2c(c1)OC1=C(C(=O)CCC1)C2C1=C(O)CCCC1=O (configuration not stated),"inconclusive: 10 µM [inhibitor, partial curve]"
15,Nc1cccc2c1C(=O)N(C(=O)c1cccc(S(=O)(=O)N3CCCCCC3)c1)C2=O,"inconclusive: 31.6 µM [inhibitor, single point]"
16,O=C(N/N=C/c1cc([N+](=O)[O-])ccc1O)Nc1ccccc1,"inconclusive: 15.8 µM [inhibitor, partial curve]"
17,O=C(N/N=C/c1cccc([N+](=O)[O-])c1)c1cc2ccccc2o1,"inconclusive: 7.08 µM [inhibitor, partial curve]"
18,COc1cc(S(=O)(=O)NCCc2c(C)[nH]c3ccccc23)c(C)cc1C,"inconclusive: 14.1 µM [inhibitor, partial curve]"
19,CCc1cccc(-n2c(=O)c3cccnc3n2CC(=O)Nc2c(C)cc(C)cc2C)c1,inactive
20,COc1ccc(CNC(=O)C2CCC(CNS(=O)(=O)c3ccc4c(c3)CCCC(=O)N4)CC2)cc1 (configuration not stated),"inconclusive: 39.8 µM [inhibitor, single point]"
21,COc1cc(-c2nc(Cn3nnc(C(=O)Nc4cccc(Cl)c4)c3C)c(C)o2)cc(OC)c1OC,"inconclusive: 20 µM [inhibitor, partial curve, poor fit]"
22,COC(=O)CSC1=C(C#N)C(c2ccc(C)cc2)C2=C(CCCC2=O)N1 (configuration not stated),inactive
23,Cc1nc(C)c(NC(=O)OC(C)C)cc1NC(=O)OC(C)C,inactive

row,SMILES,Potency
1,O=C(Nc1cc(C(F)(F)F)ccc1N1CCCC1)c1ccc2c(c1)OCO2,"inconclusive: 35.5 µM [inhibitor, single point]"
2,CC1CCN(S(=O)(=O)c2nnc(NC(=O)c3cccc(Cl)c3)s2)CC1,"inconclusive: 0.562 µM [inhibitor, full curve]"
3,COc1ccccc1NS(=O)(=O)c1cc(NC(=O)c2cc(=O)[nH]c3ccccc23)ccc1N1CCOCC1,"inconclusive: 10 µM [inhibitor, partial curve]"
4,CCOc1ccc(C(=O)NC(=S)Nc2ccccc2N2CCCCC2)cc1[N+](=O)[O-],inactive
5,O=C(N1CCCCC1)N1CCN(C(c2ccccc2)c2ccccc2)CC1,"inconclusive: 39.8 µM [inhibitor, single point]"
6,CCCc1nc2c(sc3nc4c(cc32)COC(C)(C)C4)c(=O)n1CCN(C)C,inactive
7,CCC(=O)NC(=S)Nc1ccc(NC(=O)c2ccc([N+](=O)[O-])cc2Cl)cc1,"inconclusive: 7.08 µM [inhibitor, partial curve]"
8,BrC(/C=N/Nc1nc(N2CCOCC2)nc(N2CCOCC2)n1)=C/c1ccccc1,"inconclusive: 28.2 µM [inhibitor, partial curve]"
9,CCOc1ccc(-c2nnc3ccc(SCc4ccc(C(=O)OC)o4)nn23)cc1,"inconclusive: 25.1 µM [inhibitor, single point]"
10,Cc1ccc(N=C2NC(=O)/C(=C\c3cccs3)S2)cc1C,inactive
11,CC(C)COc1ccc(/C=C2/Sc3ccccc3C2=O)cc1,active: 4.47 µM
12,O=C(O)c1ccc(N/N=C/C(Br)=C/c2ccccc2)cc1,active: 14.1 µM
13,COc1cc(-c2nc(Cc3c(F)cccc3Cl)no2)cc(OC)c1OC,"inconclusive: 25.1 µM [inhibitor, partial curve]"
14,COc1ccc(/C=N/NC(=O)c2cccnc2)cc1COc1ccc([N+](=O)[O-])cc1,"inconclusive: 14.1 µM [inhibitor, partial curve]"
15,CC1=C(C(=O)c2ccccc2)C(c2ccc(N3CCOCC3)cc2)NC(=O)N1 (configuration not stated),active: 25.1 µM
16,Cc1ccc(-c2ccc(SCC(=O)c3ccccc3)nn2)cc1,"inconclusive: 15.8 µM [inhibitor, partial curve]"
17,CNc1ccc([N+](=O)[O-])cc1C(=O)O,"inconclusive: 35.5 µM [inhibitor, single point]"
18,Cc1cc2ncn(C(=O)c3c(-c4ccccc4)noc3C)c2cc1C,"inconclusive: 31.6 µM [inhibitor, single point]"
19,Cc1ccc(Cl)cc1-n1ncc2c(N3CCN(Cc4ccccc4)CC3)ncnc21,inactive
20,Cc1ccc(NC(=O)CSc2cn(CC(=O)N3CCCC3)c3ccccc23)cc1Cl,inactive
21,COC(=O)c1cc(S(=O)(=O)n2nc(C)c(Br)c2C)c(Cl)cc1Cl,"inconclusive: 39.8 µM [inhibitor, partial curve, poor fit]"
22,O=C(N/N=C/c1ccc(O)cc1)c1nc(-c2ccccc2)n(-c2ccccc2)n1,inactive
23,CCOc1ccc(NC(=O)c2c(NC(=O)Cc3ccccc3)sc3c2CCCCC3)cc1,active: 22.4 µM

row,SMILES,Potency
1,CNC(=S)N/N=C/c1ccc(-c2cccc(C(=O)O)c2)o1,"inconclusive: 35.5 µM [inhibitor, single point]"
2,Cc1ccc(NC(=O)c2cc(-n3cnnc3)ccc2Cl)cc1,inactive
3,COc1ccc(NCc2cccn2-c2nnc(N3CCCCC3)s2)cc1OC,"inconclusive: 28.2 µM [inhibitor, partial curve]"
4,Cc1ccc2nc(COc3ccccc3NC(=O)c3ccc(F)cc3)cc(=O)n2c1,inactive
5,Cc1cc(C)cc(NC(=O)Cn2cc(C(=O)C3CCCCC3)c3ccccc32)c1,inactive
6,C=CCOC(=O)C1=C[C@@H](c2coc3ccccc3c2=O)C[C@@H](OCc2ccc(CO)cc2)O1,"inconclusive: 22.4 µM [inhibitor, single point]"
7,CCSc1nnc(-c2cc(Br)ccc2N=Cc2c(C)[nH]n(-c3ccccc3)c2=O)c(=O)[nH]1,"inconclusive: 14.1 µM [inhibitor, partial curve]"
8,CC(C)(O)C#Cc1ccc(C(=O)N2CCN(c3ccc(Cl)cc3)CC2)cc1,"inconclusive: 22.4 µM [inhibitor, partial curve, poor fit]"
9,Cc1[nH]n(-c2cccc([N+](=O)[O-])c2)c(=O)c1-c1ccccc1,"inconclusive: 10 µM [inhibitor, partial curve]"
10,CC(=O)Nc1ccc(-c2ccccc2)s1,inactive
11,CCC(CC)c1nnc(NC(=O)Oc2ccccc2)s1,inactive
12,O=[N+]([O-])c1cccc(/C=C/c2nc[nH]c2[N+](=O)[O-])c1,"inconclusive: 5.62 µM [inhibitor, partial curve, poor fit]"
13,c1c2c(cc3sc(N4CCOCC4)nc13)OCO2,"inconclusive: 6.31 µM [inhibitor, partial curve]"
14,COc1ccc(NC(C)C(=O)Nc2ccc(C(C)(C)C)cc2)cc1Cl (configuration not stated),"inconclusive: 12.6 µM [inhibitor, partial curve]"
15,CSc1ccc(C(=O)C2CCCN(C(=O)c3cccc(N4CCOCC4)c3)C2)cc1 (configuration not stated),"inconclusive: 2 µM [inhibitor, full curve]"
16,CC(C)(C)CNc1cc(N2CCOCC2)ccc1[N+](=O)[O-],"inconclusive: 25.1 µM [inhibitor, partial curve]"
17,O=[N+]([O-])c1ccc(Nc2ccc(N3CCOCC3)cc2)c([N+](=O)[O-])c1,"inconclusive: 4.47 µM [inhibitor, full curve, poor fit]"
18,CCNc1nc(NCC)n2c(SC(C(=O)Nc3cc(C)ccc3C)c3ccccc3)nnc2n1 (configuration not stated),"inconclusive: 14.1 µM [inhibitor, partial curve]"
19,CCOC(=O)C1=NN(C(=O)c2cccc(Br)c2)C(O)(C(C)(C)C)C1 (configuration not stated),inactive
20,COc1ccccc1OCC(=O)NNc1c2ccccc2nc2ccccc12,active: 17.8 µM
21,Cc1cc2cc(CNS(=O)(=O)N(C)C)ccc2[nH]1,"inconclusive: 22.4 µM [inhibitor, partial curve]"
